This note sets out measurements from article PMC9785492 (Viruses, 2022).

One test relates to A/WSN/33. It is filed as cell-based.
In a further test the test system is SARS-CoV-2. The test is classed as cell-based. The settings on record: without cytotoxicity, data unpublished.
The subject of test [1] is human coronavirus OC43 (HCoV-OC43). It is filed as cell-based.
For a further test, the system named is influenza A/WSN/33 virus. It is filed as cell-based, Influenza A virus (H1N1).
In test [2] the test system is A/WSN/33 virus.
In test [3] the test system is A/WSN/33 virus. It is filed as cell-based, Influenza A virus (H1N1).
Test [4] has as its system A/WSN/33 virus. The test is classed as cell-based, Influenza A virus (H1N1). This is another data set of the same source.

As to `O=C(O)CN(CCOCCOCCN(CC(=O)O)CC(=O)O)CC(=O)O` [EGTA], the “IAV replication (intracellular IAV RNA)” value in the test with A/WSN/33 is recorded as “dramatically impaired”.

For the molecule `COC(=O)C1=C(C)NC(C)=C(C(=O)OCC(C)C)C1c1ccccc1[N+](=O)[O-]` (stereo not shown) [Nisoldipine], the “SARS-CoV-2 infection in vitro” value in the test on SARS-CoV-2 is recorded as “capable of inhibiting”. In test [1], the “HCoV-OC43 infection in vitro” value was “capable of inhibiting”. The “formation of viral plaques” value with influenza A/WSN/33 virus was “dose-dependently reduce”. The “intracellular level of vRNA, pre-fusion stage” value with A/WSN/33 virus [2] is recorded as “remarkably reduced”. Also, the “number of clathrin-coated vesicles” value with A/WSN/33 virus [3] was “less than that in the control cells”. Also, in the test with A/WSN/33 virus [4], the “NP protein level, viral binding” value is listed as “no significant difference”.
